PMC4336329 (PLoS ONE, 2015)
Among all 310,000 compounds or so, about 14,000 (4.5%) showed an effect of 50% or more. Effects have a minus sign here. The list shows a part of the results.

Each compound was assayed against human ether-à-go-go-related gene (hERG) potassium channel (human, UniProt Q12809) (assay: primary screen, population patch clamp on CHO cells stably expressing hERG).
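Also: peak tail current of the secondary pulse compared with the same well before compound.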

Sequence of human ether-à-go-go-related gene (hERG) potassium channel (Q12809 whole entry, looked up): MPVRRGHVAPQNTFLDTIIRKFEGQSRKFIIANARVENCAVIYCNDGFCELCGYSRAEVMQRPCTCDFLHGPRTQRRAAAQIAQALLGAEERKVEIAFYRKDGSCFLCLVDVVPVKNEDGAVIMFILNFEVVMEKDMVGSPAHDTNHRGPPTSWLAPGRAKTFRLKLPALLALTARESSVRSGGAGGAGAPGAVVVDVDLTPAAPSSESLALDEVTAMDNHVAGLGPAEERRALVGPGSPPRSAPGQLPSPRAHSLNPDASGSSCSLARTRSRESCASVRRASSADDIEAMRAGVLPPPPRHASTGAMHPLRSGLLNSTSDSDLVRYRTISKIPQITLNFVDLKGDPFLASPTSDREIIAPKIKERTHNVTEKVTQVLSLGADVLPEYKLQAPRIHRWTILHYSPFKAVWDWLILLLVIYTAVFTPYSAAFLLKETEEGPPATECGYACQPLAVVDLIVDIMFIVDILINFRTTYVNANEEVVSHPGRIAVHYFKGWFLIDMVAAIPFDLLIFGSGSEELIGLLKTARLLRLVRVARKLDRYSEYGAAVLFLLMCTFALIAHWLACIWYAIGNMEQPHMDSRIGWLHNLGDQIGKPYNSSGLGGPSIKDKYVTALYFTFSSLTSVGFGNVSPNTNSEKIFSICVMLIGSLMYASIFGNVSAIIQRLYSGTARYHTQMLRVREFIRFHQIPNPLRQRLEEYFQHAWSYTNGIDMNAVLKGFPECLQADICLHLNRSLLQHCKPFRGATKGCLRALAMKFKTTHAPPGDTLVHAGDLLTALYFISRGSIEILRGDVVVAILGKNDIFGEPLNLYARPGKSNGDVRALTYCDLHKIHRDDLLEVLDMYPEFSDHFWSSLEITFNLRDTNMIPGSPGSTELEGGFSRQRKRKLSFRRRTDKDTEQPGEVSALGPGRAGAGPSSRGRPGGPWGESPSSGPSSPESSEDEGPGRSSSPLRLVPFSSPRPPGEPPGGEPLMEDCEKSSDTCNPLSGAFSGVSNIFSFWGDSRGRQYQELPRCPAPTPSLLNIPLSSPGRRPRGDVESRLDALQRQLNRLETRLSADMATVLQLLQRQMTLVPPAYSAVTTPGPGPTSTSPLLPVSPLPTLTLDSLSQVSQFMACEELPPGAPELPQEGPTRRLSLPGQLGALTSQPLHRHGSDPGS

Structure (SMILES) | hERG current change (%, negative = inhibition) at 10uM [%]
Cc1ccnc(Sc2ccc([N+](=O)[O-])cn2)n1 | 6.93
Cc1ccc(/C=C2\SC(=S)N(c3c(C)n(C)n(-c4ccccc4)c3=O)C2=O)cc1 | -21.3
Cc1ccc(S(=O)(=O)NCC2CCC(C(=O)NCc3ccccn3)CC2)cc1 (centres unmarked) | -2.03
CS(=O)(=O)n1nc(OC(=O)c2cccc3ccccc23)cc1N | -19.5
CC(=O)CC(=O)Nc1ncc(C(F)(F)F)cc1Cl | 15.9
CCN1C(=O)CC(N2CCN(c3ccc(OC)cc3)CC2)C1=O (centres unmarked) | -9.88
CCCC(=O)N1c2ccccc2NC2=C(C(=O)CCC2)C1c1ccc(F)cc1 (centres unmarked) | 10.9
Cc1cc(=O)oc2cc(Oc3ccc([N+](=O)[O-])cc3[N+](=O)[O-])ccc12 | -64.4
O=C(C1CC(=O)N(c2ccc(F)cc2)C1)N1CCCCCC1 (centres unmarked) | -6.27
O=C(NCc1nc2ccccc2[nH]1)C1=C[C@H](c2coc3ccccc3c2=O)C[C@H](OCc2ccc(CO)cc2)O1 | -21.5
O=C(Cn1nnc(-c2ccccc2)n1)OC1CCOC1=O (centres unmarked) | 10.7
COc1ccc(CCN(C)C(=O)C2CCN(Cc3ccc(C)cc3)CC2)cc1OC.O=C(O)C(=O)O | -60.8
NNC(=O)CNS(=O)(=O)c1ccc([N+](=O)[O-])cc1 | 17.4
O=c1[nH]c(SCc2ccccc2)nc2[nH]ncc12 | 1.64
CC(C)C(=O)Nc1ccc(NC(=O)c2cccc(F)c2)cn1 | -2.18
Cc1cc(C)cc(C(=O)NCC(=O)N2CCN(C(c3ccccc3)c3ccccc3)CC2)c1 | 8.55
CC(C)OCCCNC(=O)CNC(=O)c1ccc(Cl)c(Cl)c1 | 18.4
CC(=C/c1ccco1)/C=N/NC(=O)Cc1cccn1C | -6.63
CCn1nc(C(=O)NC2=NCCS2)c2ccccc2c1=O | 13.9
CC(C)C[C@H](NC(=O)N1CC(=O)Nc2ccccc21)C(=O)N[C@H](C(=O)O)c1ccccc1 | 13.6
COc1c(Cl)cc(C(=O)O)cc1Cl | 0.549
Cn1nc(C(=O)Nc2cccc(C(F)(F)F)c2)ccc1=O | -6.26

Structure (SMILES) | hERG current change (%, negative = inhibition) at 10uM [%]
COc1ccc(/C=N/NC(=O)c2ccco2)cc1OCc1ccccc1 | 4.5
O=C(/C=C/c1ccccc1)Nc1ccc(C(=O)N2CCCCC2)cc1 | -4.21
Cc1cccc(N2C(=O)Cc3ccccc3C2=O)c1 | -1.33
c1cnc2ccc(-c3ccc4ncccc4c3)cc2c1 | -5.61
CC(=O)Nc1ccc(S(=O)(=O)N2CCN(CCN3CCOCC3)CC2)cc1Cl | 10.5
O=C(COC(=O)C1(c2ccccc2F)CCCC1)NC1CCS(=O)(=O)C1 (centres unmarked) | -11.2
COc1cccc(CNS(=O)(=O)c2ccc3c(c2)C(C)(C)C(=O)N3C)c1 | -8.36
CC(=O)Nc1nc2c(s1)C(=O)NCC(C)(C)C2 | 17.3
C[C@H]1C=C(C(=O)NC2CC2)O[C@@H](OCc2ccc(CO)cc2)C1 | -0.916
COc1ccc(-c2nn(-c3ccccc3C)cc2CNCc2cccnc2)cc1F | -38.3
CN(Cc1ccccc1)S(=O)(=O)c1ccc2[nH]cc(C(=O)NCC3CCCO3)c(=O)c2c1 (centres unmarked) | -14.6
CC(C)(C)c1ccc(C(=O)c2c[nH]c(C(=O)NCc3cccnc3)c2)cc1 | -2
CCC(=O)Nc1nc2nc(-c3ccccc3)cc(-c3ccccc3)n2n1 | 2.99
O=C(Nc1cccnc1)c1ccc(N2CCOCC2)c([N+](=O)[O-])c1 | 21.7
Cc1ccc(O)c(NC(=S)NC(=O)COc2ccc(Br)cc2)c1 | 17.8
Cc1onc(-c2c(F)cccc2Cl)c1C(=O)Nc1nnc(-c2ccccc2)s1 | 5.26
CCC(C)(C)C1CCC(=NNC(=S)Nc2cccnc2)CC1 (centres unmarked) | 7.29
COc1ccc(/C=C2/N=C(SCC(=O)Nc3cc(C)on3)N(c3ccccc3)C2=O)cc1 | 21.5
CCOC(=O)/C(=N\Nc1cc(C(F)(F)F)ccc1Cl)N(CC)CC | -1.11
COc1ccc(COCC(O)CN2CCN(S(=O)(=O)c3ccc(C(C)C)cc3)CC2)cc1 (centres unmarked) | -12.3
O=C(Nc1cccc(C(F)(F)F)c1)c1ccc2nc(N3C(=O)CCC3=O)sc2c1 | -1.79
Cc1cc(C(=O)OCC(=O)Nc2ccc(F)cc2[N+](=O)[O-])c2ccccc2n1 | 5.28
